Reference: PubChem BioAssay AID651820 (National Center for Advancing Translational Sciences (NCATS), 2012)
Where “and” joins values, the source holds several entries; their conditions need not be identical. Equal values may be shown once. Among all 340,000 compounds or so, about 12,000 (3.5%) were called active. This list was built around the results that the source calls inconclusive (neither active nor inactive); the mix of calls is not that of the screen. Calls follow the shape of the dose curve; as a rule, active = well fitted inhibition curve with a large enough effect; inconclusive = small, poorly fitted or top-dose-only effect, or another doubt; inactive = no such curve, though single readings can be large or run the other way. Potencies beside an inconclusive call are fits to weak or partial responses and may not hold up.

assay: qHTS Assay for Inhibitors of Hepatitis C Virus (HCV); settings: Huh7.5.1 HCVcc-Cre (HCVcc is cell-culture hepatitis C virus) infection, luciferase reporter, 44 h; series mostly up to 41.8 µM
Method in brief: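 Cells seeded at 1,000/well and cultured 4 h, then compounds added followed by HCVcc-Cre virus (~0.5 moi). After 44 h further culture, luciferase substrate was added, plates held 15 min at room temperature, and luminescence read for 15 sec.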
Potency is read from the fitted curve at half-maximal effect; tags tell the direction and shape of the fitted curve.

For `COc1cc(NC(=O)c2cc3ccccc3cc2OC)ccc1NC(=O)c1cccs1`, which Potency is on record?
The Potency was active: 3.16 µM.

With `CCC(C)NC(=O)/C=C/c1ccc(S(=O)(=O)NCc2ccco2)cc1` (stereo unspecified) as the compound, how does the Potency read?
The Potency was inconclusive: 11.2 µM [inhibitor, single point].

Which Potency does the source give for `Cn1c(N)c(C(=O)COC(=O)COc2ccc(Br)cc2)c(=O)n(C)c1=O` here?
Its Potency is “inactive”.

Which Potency does the source give for `CN(C)/C=C/C(=O)c1ccc(Cl)s1` here?
The Potency was “inactive”.

With `O=C(CC12CC3CC(CC(C3)C1)C2)N1CCOCC1` as the compound, how does the Potency read?
Its Potency is “inactive”.

For `CCC(C(=O)NCc1ccco1)n1nc(C)c2c(C)n(-c3ccccc3)nc2c1=O` (stereo unspecified), which Potency is on record?
Its Potency is “inactive”.

For `NC(=O)CC1C(=O)N(c2ccccc2)C(=S)N1NC(=O)c1ccccc1` (stereo unspecified), which Potency is on record?
The Potency was “inactive”.

With `C/C=C/C=C/C(=O)N1CC2(CC(c3cccc(NC(=O)CCCCC)c3)=NO2)C[C@H]1C(N)=O` (stereo partly specified) as the compound, how does the Potency read?
The Potency was inconclusive: 7.94 µM [inhibitor, partial curve].

For `COc1cccc(C2=NN(C(=O)c3ccc(C)o3)C(O)(C(F)(F)F)C2)c1` (stereo unspecified), which Potency is on record?
The Potency was inconclusive: 31.6 µM [inhibitor, single point].

Which Potency does the source give for `CCOc1ccc(/C=C/C(=O)OCC(=O)c2ccccc2OC)cc1OC` here?
The Potency was inconclusive: 31.6 µM [inhibitor, partial curve, poor fit].

With `O=C(NC1CCCc2c1cnn2-c1ccccc1F)c1ccccn1` (stereo unspecified) as the compound, how does the Potency read?
The Potency was inconclusive: 10 µM [inhibitor, partial curve].

For `O=C(CCCN1C(=O)/C(=C\c2cccc(Br)c2)SC1=S)Nc1cccnc1`, which Potency is on record?
The Potency was inconclusive: 22.4 µM [inhibitor, single point].

With `Cc1ccc(NC(=O)Nc2cccnc2)cc1Cl` as the compound, how does the Potency read?
The Potency was inconclusive: 0.562 µM [inhibitor, full curve, poor fit].

Which Potency does the source give for `CC(C)c1nnc(NC(=O)c2ccc3c(c2)OCO3)s1` here?
The Potency was “inactive”.

For `COCCCNS(=O)(=O)c1ccc2[nH]c(=O)[nH]c2c1`, which Potency is on record?
Its Potency is inconclusive: 10 µM [inhibitor, partial curve].

With `COc1cccc(CN2CCN(C(=S)NCc3ccc(Cl)cc3)CC2)c1` as the compound, how does the Potency read?
Its Potency is inconclusive: 22.4 µM [inhibitor, single point].

Which Potency does the source give for `CCN(CC(=O)NCc1cccs1)C(=O)COc1cccc(C(F)(F)F)c1` here?
Its Potency is “inactive”.

For `CCc1ccc(C(=O)COC(=O)C2CCN(c3ccc(C(F)(F)F)cn3)CC2)cc1`, which Potency is on record?
The Potency was “inactive”.

With `CCCc1cc(C(=O)Nc2cc(C)ccc2O)no1` as the compound, how does the Potency read?
Its Potency is inconclusive: 11.2 µM [inhibitor, partial curve].

Which Potency does the source give for `COC(=O)C1=C(C)N(CCCC(=O)O)C(=O)NC1c1cccc(OC)c1` (stereo unspecified) here?
The Potency was “inactive”.

With `Cc1c(C(=O)N2CCc3ccccc3C2)oc2ccccc12` as the compound, how does the Potency read?
The Potency was inconclusive: 31.6 µM [inhibitor, single point].

Which Potency does the source give for `COc1cc([N+](=O)[O-])ccc1NC(=O)c1cccc(NC(=O)C(C)C)c1` here?
Its Potency is inconclusive: 10 µM [inhibitor, partial curve].

For `Cc1nc(SCC(=O)NCc2ccco2)c2c(C)c(C)sc2n1`, which Potency is on record?
Its Potency is inconclusive: 12.6 µM [inhibitor, single point].

With `C=CCNC(=S)N1N=C(c2ccco2)CC1c1ccco1` (stereo unspecified) as the compound, how does the Potency read?
Its Potency is “inactive”.

For `FC(F)Oc1ccc(NC(=S)NC23CC4CC(CC(C4)C2)C3)cc1`, which Potency is on record?
Its Potency is inconclusive: 14.1 µM [inhibitor, partial curve].

For `CCOC(=O)/C(=C/C=C1\Sc2cc(OCC)c(OCC)cc2N1CC)C(C)=O`, which Potency is on record?
The Potency was inconclusive: 1.12 µM [inhibitor, full curve, poor fit].

With `CCOC(=O)N1CCC(=NNc2ccnc3cc(Cl)ccc23)CC1` as the compound, how does the Potency read?
Its Potency is inconclusive: 31.6 µM [inhibitor, single point].

Which Potency does the source give for `CCc1cccc2[nH]c3cc([N+](=O)[O-])ccc3c12` here?
Its Potency is inconclusive: 10 µM [inhibitor, partial curve].

Which Potency does the source give for `CC1Cc2ccccc2N1C(=O)CN1C(=O)COc2ccccc21` (stereo unspecified) here?
Its Potency is inconclusive: 5.62 µM [inhibitor, single point].

Which Potency does the source give for `O=c1[nH]c2cc3c(cc2cc1CN(CCO)S(=O)(=O)c1ccccc1)OCCO3` here?
Its Potency is inconclusive: 31.6 µM [inhibitor, single point].

Which Potency does the source give for `COc1ccc(C(=O)N/C(=C\c2ccco2)C(=O)NCc2cccnc2)cc1` here?
The Potency was “inactive”.

For `Cc1cc(C)cc(NC(=O)N2CCN(S(C)(=O)=O)CC2)c1`, which Potency is on record?
The Potency was “inactive”.

For `Cc1c(O)ccc(/C=N/Nc2ncccc2[N+](=O)[O-])c1O`, which Potency is on record?
Its Potency is inconclusive: 11.2 µM [inhibitor, partial curve].

With `O=C(c1cc(COc2ccc(F)cc2Cl)on1)N1CCCCC1c1cccnc1` (stereo unspecified) as the compound, how does the Potency read?
Its Potency is inconclusive: 31.6 µM [inhibitor, partial curve].

Which Potency does the source give for `O=C(CN1C(=O)NC2(CCCC2)C1=O)Nc1ccccc1F` here?
Its Potency is “inactive”.

With `Cc1noc(C)c1COc1cccc(C(=O)NCCc2c[nH]c3ccccc23)c1` as the compound, how does the Potency read?
The Potency was inconclusive: 31.6 µM [inhibitor, single point].

Which Potency does the source give for `Cc1ccc(C(=O)NC(=S)Nc2ccc3c(c2)OCCO3)c(C)c1` here?
The Potency was “inactive”.

Which Potency does the source give for `Cc1cccc(NC(=O)c2ccc([N+](=O)[O-])o2)c1C` here?
The Potency was inconclusive: 31.6 µM [inhibitor, single point].

For `Cc1cc(C)n(-c2ccc(C(=O)N3CCN(S(=O)(=O)c4cccc(Br)c4)CC3)cc2)n1`, which Potency is on record?
The Potency was active: 7.94 µM.

Which Potency does the source give for `Nc1c(C(=O)c2ccccc2)sc(Nc2ccccc2)c1S(=O)(=O)c1ccccc1` here?
Its Potency is active: 14.1 µM.

Which Potency does the source give for `CCc1cc(C(=O)NNC(=S)NC2CCCCC2)cs1` here?
The Potency was inconclusive: 11.2 µM [inhibitor, partial curve].

For `CNC(=O)c1ccc(CN(C)CC(=O)Nc2ccccc2C(=O)NC2CC2)cc1`, which Potency is on record?
The Potency was inconclusive: 5.62 µM [inhibitor, single point].

With `CCOC(=O)N1CC=C2C(C#N)=C(N)C(C#N)(C#N)[C@H](c3ccccc3OCC)[C@H]2C1` as the compound, how does the Potency read?
The Potency was “inactive”.

For `CCN(C[C@H]1N[C@@](CC)(C(=O)OC)[C@H]2C(=O)N(Cc3ccccc3)C(=O)[C@@H]12)C(=O)C1CCCCC1`, which Potency is on record?
Its Potency is inconclusive: 2.51 µM [inhibitor, full curve].

With `CC(C)(C)N(NC(=O)c1ccccc1)C(=O)c1ccc(C(=O)N(NC(=O)c2ccccc2)C(C)(C)C)cc1` as the compound, how does the Potency read?
Its Potency is “inactive”.

With `CC1CN=C(N(C(=O)Nc2ccccc2)c2ccc(S(=O)(=O)N3CCOCC3)cc2)S1` (stereo unspecified) as the compound, how does the Potency read?
Its Potency is “inactive and inconclusive: 31.6 µM [inhibitor, single point]”.
